This is an account of results in the supplement of paper PMC10037445.

Each structure is given as a SMILES string. Several values for one entry are separate records, joined by “and”; a condition that tells them apart may be missing. Identical values can stand only once. Whole data set: some 2,900 compounds, median “NF-kB SEAP reporter activity, fold change vs agonist alone” near 0.99, cut for the highest 2% near 2.6. This is one part of the list.

Assay [1] concerns RAW-Dual. The assay can be described thus: NF-kB SEAP reporter activity, fold change vs agonist alone; cytotoxicity flag (confluency mask): not cytotoxic; higher = enhanced NF-kB activity. Put shortly: (§1)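 After 50 nL of library stock was delivered by pin tool to RAW-Dual macrophages (50,000 cells/well, DMEM, 384-well plates), a PRR agonist was added 1 h later and the plates were kept at 37 °C, 5% CO2. Twenty hours later, IRF was read from supernatant by QuantiLuc luminescence and NF-κB by QuantiBlue absorbance at 620 nm. Reporter activity is stated as fold change over agonist-alone wells. Wells with IncuCyte confluency under 70% of agonist controls in both mask sets were counted as cytotoxic.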

Assay [2] has as its system RAW-Dual. The assay can be described thus: NF-kB SEAP reporter activity, fold change vs agonist alone; higher = enhanced NF-kB activity. The settings on record: library stock concentration (final ~1000-fold dilution): 10 mM. In outline:
as §1

The test system of assay [3] is RAW-Dual. The assay can be described thus: NF-kB SEAP reporter activity, fold change vs agonist alone; cytotoxicity flag (confluency mask): cytotoxic (confluency <70% of control); higher = enhanced NF-kB activity. Put shortly: as §1
[4] abbreviates: agonist: ODN 1826 (TLR9) 0.5 ug/mL.
[5] abbreviates: agonist: Pam2CSK4 (TLR2/6) 0.1 ug/mL.
Where [6] appears, read: agonist: Pam3CSK4 (TLR2/1) 0.1 ug/mL.
[7] abbreviates: cytotoxicity flag (confluency mask): not cytotoxic, agonist: Imiquimod (TLR7) […].
[8] abbreviates: cytotoxicity flag (confluency mask): not cytotoxic, agonist: MPLA (TLR4) […].
[9] abbreviates: cytotoxicity flag (confluency mask): cytotoxic (confluency <70% of control), agonist: MPLA (TLR4) […].

Take `CNc1nc(Nc2cn(C(C)(C)C#N)nc2C)ncc1C(F)(F)F` (library stock concentration (final ~1000-fold dilution): 10 mM): the “NF-kB SEAP reporter activity” value amounted to 1.51 with RAW-Dual [1] (agonist: LPS (TLR4) 0.1 ug/mL), 1.03 in the assay with RAW-Dual [1] (setting [4]), 1.07 in the assay with RAW-Dual [1] (setting [5]) and 1.19 in the assay on RAW-Dual [1] (setting [6]).

For the molecule `CNc1nc(Nc2cn(C(C)(C)C#N)nc2C)ncc1C(F)(F)F`, the “NF-kB SEAP reporter activity” value in the assay on RAW-Dual [2] (setting [7]) was determined as 0.954; in the assay with RAW-Dual [2] (setting [8]), 1.2.

Consider `CC(C)(O)CNc1ncc(-c2ccnc(Nc3ccnc(Cl)c3)n2)c(CC2CC2)n1` (library stock concentration (final ~1000-fold dilution): 10 mM), for which the “NF-kB SEAP reporter activity” value with RAW-Dual [1] (agonist: LPS (TLR4) 0.1 ug/mL) was 5.81.

For the molecule `C=CC(=O)N1C/C(=C\c2ccc([N+](=O)[O-])cc2)C(=O)/C(=C/c2ccc([N+](=O)[O-])cc2)C1` (library stock concentration (final ~1000-fold dilution): 10 mM), the “NF-kB SEAP reporter activity” value amounted to 0.243 in the assay with RAW-Dual [3] (agonist: LPS (TLR4) 0.1 ug/mL), 0.613 in the assay on RAW-Dual [3] (setting [4]), 0.184 in the assay on RAW-Dual [3] (setting [5]) and 0.392 with RAW-Dual [3] (setting [6]).

In the case of `C=CC(=O)N1C/C(=C\c2ccc([N+](=O)[O-])cc2)C(=O)/C(=C/c2ccc([N+](=O)[O-])cc2)C1`, in the assay with RAW-Dual [2] (setting [9]), the “NF-kB SEAP reporter activity” value was determined as 0.793.

`Cn1c(-c2ccccc2C(F)(F)F)nnc1C12CCC(c3noc(C4CC(F)(F)C4)n3)(CC1)CC2` (library stock concentration (final ~1000-fold dilution): 10 mM): the “NF-kB SEAP reporter activity” value with RAW-Dual [1] (agonist: LPS (TLR4) 0.1 ug/mL) worked out at 1.22; in the assay on RAW-Dual [1] (setting [4]) it was 0.41; in the assay with RAW-Dual [1] (setting [5]), 0.827; in the assay with RAW-Dual [1] (setting [6]), 1.16.

In the case of `Cn1c(-c2ccccc2C(F)(F)F)nnc1C12CCC(c3noc(C4CC(F)(F)C4)n3)(CC1)CC2`, the “NF-kB SEAP reporter activity” value in the assay on RAW-Dual [2] (setting [7]) is 0.868; with RAW-Dual [2] (setting [8]) it was 1.3.

For the molecule `CC(C)c1nc(CN(C)C(=O)NC(C(=O)NC(Cc2ccccc2)CC(O)C(Cc2ccccc2)NC(=O)OCc2cncs2)C(C)C)cs1` (configuration not stated) (library stock concentration (final ~1000-fold dilution): 10 mM), the “NF-kB SEAP reporter activity” value with RAW-Dual [1] (agonist: LPS (TLR4) 0.1 ug/mL) was 0.6; with RAW-Dual [1] (setting [4]), 0.68; in the assay on RAW-Dual [1] (setting [5]), 0.269; in the assay with RAW-Dual [1] (setting [6]) it was 0.367.

Consider `CC(C)c1nc(CN(C)C(=O)NC(C(=O)NC(Cc2ccccc2)CC(O)C(Cc2ccccc2)NC(=O)OCc2cncs2)C(C)C)cs1` (configuration not stated), for which the “NF-kB SEAP reporter activity” value in the assay with RAW-Dual [2] (setting [7]) was determined as 0.777; with RAW-Dual [2] (setting [8]), 0.653.

Turning to `CCn1c(-c2nonc2N)nc2cnc(Oc3cccc(NC(=O)c4ccc(OCCN5CCOCC5)cc4)c3)cc21.Cl` (library stock concentration (final ~1000-fold dilution): 10 mM), the “NF-kB SEAP reporter activity” value in the assay with RAW-Dual [1] (agonist: LPS (TLR4) 0.1 ug/mL) stood at 1.31; in the assay on RAW-Dual [1] (setting [4]) it was 0.288; in the assay with RAW-Dual [1] (setting [5]), 1.12; in the assay with RAW-Dual [1] (setting [6]) it was 1.56.

Regarding `CCn1c(-c2nonc2N)nc2cnc(Oc3cccc(NC(=O)c4ccc(OCCN5CCOCC5)cc4)c3)cc21.Cl`, the “NF-kB SEAP reporter activity” value in the assay on RAW-Dual [2] (setting [7]) turned out to be 1.48; in the assay on RAW-Dual [2] (setting [8]), 1.41.

In the case of `CCN1CCN(Cc2ccc(C(=O)Nc3ccc(C)c(Oc4ccc5c(c4)CC(=O)N5)c3)cc2C(F)(F)F)CC1`, the “NF-kB SEAP reporter activity” value is 1.18 in the assay on RAW-Dual [2] (cytotoxicity flag (confluency mask): cytotoxic (confluency <70% of control), agonist: Imiquimod (TLR7) […]) and 1.31 in the assay with RAW-Dual [2] (setting [9]).

Turning to `CCN1CCN(Cc2ccc(C(=O)Nc3ccc(C)c(Oc4ccc5c(c4)CC(=O)N5)c3)cc2C(F)(F)F)CC1` (library stock concentration (final ~1000-fold dilution): 10 mM), the “NF-kB SEAP reporter activity” value with RAW-Dual [3] (agonist: LPS (TLR4) 0.1 ug/mL) stood at 0.501; in the assay on RAW-Dual [3] (setting [4]), 0.249; in the assay on RAW-Dual [3] (setting [5]), 0.217; with RAW-Dual [3] (setting [6]) it was 0.276.

Consider `CS(=O)(=O)O.Cc1ccc(N(CC2=NCCN2)c2cccc(O)c2)cc1`, for which the “NF-kB SEAP reporter activity” value worked out at 1.15 in the assay with RAW-Dual [2] (setting [7]) and 1.03 in the assay on RAW-Dual [2] (setting [8]).

As to `CS(=O)(=O)O.Cc1ccc(N(CC2=NCCN2)c2cccc(O)c2)cc1` (library stock concentration (final ~1000-fold dilution): 10 mM), the “NF-kB SEAP reporter activity” value in the assay with RAW-Dual [1] (agonist: LPS (TLR4) 0.1 ug/mL) was 1.13; with RAW-Dual [1] (setting [4]), 0.764; with RAW-Dual [1] (setting [5]), 0.962; in the assay with RAW-Dual [1] (setting [6]), 0.933.

For the molecule `NC(=O)c1ccc(OCCCN2CC3CCCC3C2)cc1` (configuration not stated) (library stock concentration (final ~1000-fold dilution): 10 mM), the “NF-kB SEAP reporter activity” value came to 0.976 in the assay with RAW-Dual [1] (agonist: LPS (TLR4) 0.1 ug/mL), 0.696 in the assay with RAW-Dual [1] (setting [4]), 0.926 with RAW-Dual [1] (setting [5]) and 1.14 in the assay with RAW-Dual [1] (setting [6]).

In the case of `NC(=O)c1ccc(OCCCN2CC3CCCC3C2)cc1` (configuration not stated), the “NF-kB SEAP reporter activity” value is 0.844 with RAW-Dual [2] (setting [7]) and 1.05 in the assay on RAW-Dual [2] (setting [8]).

In the case of `CC(=O)OC1CCC2(C)C(=CCC3C2CCC2(C)C(c4cccnc4)=CCC32)C1` (configuration not stated), the “NF-kB SEAP reporter activity” value with RAW-Dual [2] (setting [7]) was 1.12; in the assay with RAW-Dual [2] (setting [8]) it was 1.05.

`CC(=O)OC1CCC2(C)C(=CCC3C2CCC2(C)C(c4cccnc4)=CCC32)C1` (configuration not stated) (library stock concentration (final ~1000-fold dilution): 10 mM): the “NF-kB SEAP reporter activity” value turned out to be 0.898 in the assay with RAW-Dual [1] (agonist: LPS (TLR4) 0.1 ug/mL), 1.06 in the assay on RAW-Dual [1] (setting [4]), 0.97 in the assay with RAW-Dual [1] (setting [5]) and 1.97 with RAW-Dual [1] (setting [6]).

With `CC1=NN(c2ccc(C)c(C)c2)C(=O)/C1=N\Nc1cccc(-c2cccc(C(=O)O)c2)c1O.NCCO.NCCO` (library stock concentration (final ~1000-fold dilution): 10 mM), the “NF-kB SEAP reporter activity” value in the assay on RAW-Dual [1] (agonist: LPS (TLR4) 0.1 ug/mL) amounted to 2.92; in the assay on RAW-Dual [1] (setting [4]), 1.31; in the assay with RAW-Dual [1] (setting [5]) it was 1.58; with RAW-Dual [1] (setting [6]), 1.34.

`CC1=NN(c2ccc(C)c(C)c2)C(=O)/C1=N\Nc1cccc(-c2cccc(C(=O)O)c2)c1O.NCCO.NCCO`: the “NF-kB SEAP reporter activity” value stood at 1.57 with RAW-Dual [2] (setting [7]) and 1.64 in the assay with RAW-Dual [2] (setting [8]).

Turning to `CCOC(=O)/C=C/c1ccc(O)c(O)c1` (library stock concentration (final ~1000-fold dilution): 10 mM), the “NF-kB SEAP reporter activity” value is 0.633 and 0.814 with RAW-Dual [1] (agonist: LPS (TLR4) 0.1 ug/mL); 0.407 and 0.651 in the assay on RAW-Dual [1] (setting [4]); 0.658 and 0.524 in the assay on RAW-Dual [1] (setting [5]); 0.563 and 0.481 with RAW-Dual [1] (setting [6]).

Turning to `O=C(Oc1cc(S(=O)(=O)c2ccccc2)ccc1[N+](=O)[O-])c1ccc(Cl)cc1` (library stock concentration (final ~1000-fold dilution): 10 mM), the “NF-kB SEAP reporter activity” value in the assay on RAW-Dual [1] (agonist: LPS (TLR4) 0.1 ug/mL) is 5.2.

As to `O=C(Oc1cc(S(=O)(=O)c2ccccc2)ccc1[N+](=O)[O-])c1ccc(Cl)cc1`, in the assay with RAW-Dual [2] (setting [8]), the “NF-kB SEAP reporter activity” value worked out at 2.59.

Consider `Cc1ccc(=O)n(-c2ccccc2)c1` (library stock concentration (final ~1000-fold dilution): 10 mM), for which the “NF-kB SEAP reporter activity” value was determined as 1.15 in the assay on RAW-Dual [1] (agonist: LPS (TLR4) 0.1 ug/mL), 1.03 in the assay with RAW-Dual [1] (setting [4]), 0.979 with RAW-Dual [1] (setting [5]) and 1.14 in the assay on RAW-Dual [1] (setting [6]).

For the molecule `Cc1ccc(=O)n(-c2ccccc2)c1`, the “NF-kB SEAP reporter activity” value in the assay on RAW-Dual [2] (setting [7]) was 1.04; in the assay with RAW-Dual [2] (setting [8]), 1.07.
